Reference: PMC12136788
Some of the results follow.

B1: chr5:141515350:141515460:-|3pUTR|ENSG00000131504|msi1_unk|FALSE|overlapping (ssRNA)
RNA: GGGAGUUCUACAGUCCGACGAUCCUCAGCUUUCCAUCCCCAGCUAGGAAGAAAGAAUGGCACUCUUGGGCUUGGCCCAGAAUUAGAGUUAUUAGAGCAAGAGAGAGCUUAGGAAGCAUGAGGGCAACUAUAGUGAGGCCUUAUCAACAGAGGAUUGAGCAUCA
B2: ENSG00000176463:stop:overlap|stop_codon|ENSG00000176463|stop_codon|NA|stop_codon (ssRNA)
RNA: GGGAGUUCUACAGUCCGACGAUCCAAAGUUUAUCUAUAACCUGGAAGACCAUGAGUGGUGUGAAAACAUGGAGUCCGUUUUAUAGUGACUAAAGGAGGGCUGAACUCUGUAUUAGUAAUCCAAGGGUCAUUUUUUUCUUAAAACAACAGAGGAUUGAGCAUCA
B3: chr14:60713409:60714203:-|CDS|ENSG00000100625|control|control|control (ssRNA)
RNA: GGGAGUUCUACAGUCCGACGAUCUUCUGAGAGCAAAGCAACAAGUAGCUUAAUGAUGCUGGACUCUAAAUCCAAGUAUGUCUUAGAUGGCAUGGUUGAUACUGUCUGUGAAGACCUGGAAACAGACAAAAAAGAGCUUGCCAACAACAGAGGAUUGAGCAUCA
B4: chr10:95611293:95611394:-|CDS|ENSG00000059573|msi1|FALSE|bound_elsewhere (ssRNA)
RNA: GGGAGUUCUACAGUCCGACGAUCCCCCUCCGAAGUGAAGUCACUCCGAACUGAGUAUGGGGACCUGGAAUUAUGCAUUGAAGUAGUGGACAACGUUCAGGAUGCCAUUGACCACAUCCACAAGUAUGGCAGCUCCCACACGGACAACAGAGGAUUGAGCAUCA
B5: chr1:9729132:9729211:-|3pUTR|ENSG00000171603|msi1_unk|total|mutant (ssRNA)
RNA: GGGAGUUCUACAGUCCGACGAUCCCGUUCUGAGGACACUGGUGGCUGUGCUAUGUGUGGCCAUCCUCCAUGUCCCGUCCCUGCCGCUGCUCUGUUCCGACAGCGGACAGACGCUCACGCCCAGGGGAUGUCCUCACGCUGUCGCAACAGAGGAUUGAGCAUCA
B6: ENSG00000136451:be:win_751|CDS|ENSG00000136451|bound_else_gene|NA|bound_elsewhere_windowed (ssRNA)
RNA: GGGAGUUCUACAGUCCGACGAUCGUAAAACAUGUCCAUUCAACAGAAAGACCCUUCAAAUGCCAAACGUGCACUGCUGCCUUUGCCACCAAAGACAGACUGCGGACACACAUGGUGCGCCAUGAAGGCAAGGUAUCAUGUAACCAACAGAGGAUUGAGCAUCA
B7: chr10:106575406:106575507:-|3pUTR|ENSG00000108018|unk|total|mutant (ssRNA)
RNA: GGGAGUUCUACAGUCCGACGAUCUUAUGGACUGGGCAAAGCCCACUAUAAACUACCGGAGAAAGAAGUUCUGAUAAACCUCUCCGUAUGCUCAGCCUCCUUCUUUGCUAUGUCCCUAAGCCAACAGGGUAUAACACAGGCCCUCAACAGAGGAUUGAGCAUCA
B8: chr5:72207927:72208036:+|3pUTR|ENSG00000131711|msi1_unk|FALSE|overlapping (ssRNA)
RNA: GGGAGUUCUACAGUCCGACGAUCUUUUUUUUUUUUUUUUUUUGCUAUGGGAUUUAAUGGGAAAAAUAUGUAAAAACUGUCACUAGUCAGCUGGCUCUUUUUCCUAUGAAAUCUAUCAGUACCUUUCUCCAUCCGUUGUUCUCACAACAGAGGAUUGAGCAUCA
B9: chr15:85746268:85746369:+|3pUTR|ENSG00000170776|msi1|total|mutant (ssRNA)
RNA: GGGAGUUCUACAGUCCGACGAUCUGUUUUAUUUAUUGUAUUUGUGUGUUUGUGUUUGUUUUUUUUUAAGGGUGAGCCAGGUCCCGCCCAACAGUCUAAACUAUCCAGUCAAUACCGAGUGAAGUGGCAGCCAGCACUGUUCACCAACAGAGGAUUGAGCAUCA
B10: chr17:28327902:28328001:+|3pUTR|ENSG00000109084|msi1_unk|FALSE|overlapping (ssRNA)
RNA: GGGAGUUCUACAGUCCGACGAUCUCCCUGUAUCUGAAGUCUAGCAUCUCAAGGCUGAUCUGGAAGUGUGCUAGUAUGCUCCCUAGUGGAUAACUUAAUCUUUUAAUACAGUUCCGUCAUUCCCAUCUUGUUUUCAGAAGAGAACAACAGAGGAUUGAGCAUCA
B11: chr20:57651677:57651767:-|3pUTR|ENSG00000124225|msi1_unk|FALSE|overlapping (ssRNA)
RNA: GGGAGUUCUACAGUCCGACGAUCGUUGAGCUGUGUCUUGAAGGCAAAAGAAAAAAAAUUUCUACAGUAGUCUUUCUUGUUUCUAGUUGAGCUGCGUGCGUGAAUGCUUAUUUUCUUUUGUUUAUGAUAAUUUCACUUAACUUUCAACAGAGGAUUGAGCAUCA
B12: chr18:47840682:47840783:-|3pUTR|ENSG00000175387|unk|FALSE|unique (ssRNA)
RNA: GGGAGUUCUACAGUCCGACGAUCAUACCGUUUUUCCAAAGGUAUUUUACAAUAUUUCAACAGCAGACCUUCUGCUCUUCGAGUAGUUUGAUUUGGUUUAGUAACCAGAUUGCAUUAUGAAAUGGGCCUUUUGUAAAUGUAAUUCAACAGAGGAUUGAGCAUCA
B13: ENSG00000198589:be:win_3651|CDS|ENSG00000198589|bound_else_gene|NA|bound_elsewhere_windowed (ssRNA)
RNA: GGGAGUUCUACAGUCCGACGAUCCCUCACUAGAGAAACCAAAUUAAUUAAUGAUUGUCAUGGUAGUGUCUCUGAGGCUUCUUCUGAGCAAAAGAUUGCGAAGUUGGAUGUUUCCAAUGUUGCUACAGAUACUGAGAGGCUGGACAACAGAGGAUUGAGCAUCA
B14: chr22:20142972:20143073:+|CDS|ENSG00000099904|msi1|total|mutant (ssRNA)
RNA: GGGAGUUCUACAGUCCGACGAUCGGGGAUCAUGUGGCCCUGCAGCCCCUGCGCUCUGAGGGGGGGCCCCCCACGCCCCACCGCCGCAUUUUUGCCCCCCAUGCACUGCCCAACCGCAACGGCAGCCUGUCCUAUGACAGCCUGCAACAGAGGAUUGAGCAUCA
B15: chrX:85271413:85271529:+|CDS|ENSG00000147180|unk|FALSE|unique (ssRNA)
RNA: GGGAGUUCUACAGUCCGACGAUCUGUGAUAAAGGUUUUCAUCGUCCUUCUGAGCUCAAAAAGCAUAGUGAUAUCCAUAAGGGUAGGAAGAUUCAUCAGUGCAGGCACUGUGACUUUAAAACAUCCGAUCCAUUUAUUCUUAGUCAACAGAGGAUUGAGCAUCA
B16: ENSG00000106799:stop:overlap|stop_codon|ENSG00000106799|stop_codon|NA|stop_codon (ssRNA)
RNA: GGGAGUUCUACAGUCCGACGAUCGCAAGCUGCUUGAGAGCAGCCUUGUAUUCCCAGCAUCCAUCACAGUGCCUAAUACAUGGUAGAUCCUCAGUAGAUAUUUGUUGAGUCCAUGAGUCUUCAAAAGAACUUAAUUAGGUACAUCAACAGAGGAUUGAGCAUCA
B17: chr22:40825413:40825514:-|3pUTR|ENSG00000100380|msi1|FALSE|bound_elsewhere (ssRNA)
RNA: GGGAGUUCUACAGUCCGACGAUCGGUAAUACCCACAACAACUGUAGUUUCUUACUUGGCCAAGAGAAUGCUUAUUUAAGUGUUAGACUUCCAUUCUGGCAAAAUCUUGCCUUAUCAGAAGACAUUGGAAAGAGGGAUUCCCUUCAACAGAGGAUUGAGCAUCA
B18: chr7:138594284:138594621:-|three_prime_utr|ENSG00000157703|control|control|control (ssRNA)
RNA: GGGAGUUCUACAGUCCGACGAUCUCAGAACUGCGGUGCAUUUUUUUAAAACUUGGUUUUACUUCUGUAUGCUACUCGGUAAUUAGUAAAGUGAUUUUUUUUUUAAAGGCAUAUAUGGGAAUGGGGUAGGUAACUGUAUAUUGACAACAGAGGAUUGAGCAUCA
B19: chr8:43200960:43201061:+|3pUTR|ENSG00000165102|unk|FALSE|unique (ssRNA)
RNA: GGGAGUUCUACAGUCCGACGAUCCAAAUUCUAAGUGUUUUCUCUUUAGGUUUCCCUGGCUUUGUGAAUGGAUCAUGUGUCUCUAGGUAUAAACCUGACAUCAUCUUUCCACCCGGCUUACCUCCACCAGAUCUCCCCAGUUCUCAACAGAGGAUUGAGCAUCA
B20: chr7:93208579:93208876:-|CDS|ENSG00000188175|control|control|control (ssRNA)
RNA: GGGAGUUCUACAGUCCGACGAUCUGACAAUACUACAUAUAUCAUUAAGCAUGGGCCUCGCUUAGAAGUUGCAUCUGAGAAAGUAGCCCAGAAGACAAUGGACUAUGUGUGCUGUGCUUACAACAACAUAACCGGCAGGCAAGACAACAGAGGAUUGAGCAUCA
B21: chr15:89477516:89477653:-|CDS|ENSG00000140519|control|control|control (ssRNA)
RNA: GGGAGUUCUACAGUCCGACGAUCCCGGCUGCACAUCCAGGACACAUGUGGCAUUAACAAUCUGCAUGGCAUUCCUGGCAUCAUAGGCGGCAUCGUGGGUGCUGUGACAGCGGCCUCCGCCAGCCUUGAAGUCUAUGGAAAAGACAACAGAGGAUUGAGCAUCA
B22: chr17:79086671:79086772:+|3pUTR|ENSG00000167280|msi1|total|mutant (ssRNA)
RNA: GGGAGUUCUACAGUCCGACGAUCACCGGCUGCAAGAUGCUGAUGCCGAGAAUGAUGAUUUUCUUUCCUGCAGAUGAAACUAUCCGAAAGGGUCUCCGAUUGUGGCAGGCCGGCUUUGGAGCAGGCGCCGAGACAUUUCUGAGCCAACAGAGGAUUGAGCAUCA

Molecular target: MSI1 full-length (mouse, UniProt Q61474 1-362)
Test: nsRBNS (natural sequence RNA bind-n-seq); RBNS binding buffer (assumed for nsRBNS): 25 mM Tris pH 7.5, 150 mM KCl, 3 mM MgCl2, 0.01% Triton X-100, 500 ug/ml BSA, 20 U/ml SUPERase-In, 4 C; UNK is unkempt and MSI1 is Musashi-1; names of the RNAs are library labels; protein concentration not given here; high values mean tight binding

Sequence of UniProt Q61474 (Q61474 whole entry): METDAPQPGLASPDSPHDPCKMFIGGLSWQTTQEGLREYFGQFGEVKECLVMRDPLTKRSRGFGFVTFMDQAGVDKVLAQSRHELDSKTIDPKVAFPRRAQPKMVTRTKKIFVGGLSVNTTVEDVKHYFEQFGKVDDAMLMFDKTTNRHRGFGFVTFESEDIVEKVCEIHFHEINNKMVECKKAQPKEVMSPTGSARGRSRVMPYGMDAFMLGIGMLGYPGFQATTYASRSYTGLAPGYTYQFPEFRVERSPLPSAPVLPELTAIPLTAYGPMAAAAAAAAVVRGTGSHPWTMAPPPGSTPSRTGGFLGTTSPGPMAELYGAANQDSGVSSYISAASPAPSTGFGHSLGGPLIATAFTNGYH

Row | Binder | binding signal [enrichment R]
1 | B1 | 28.2
2 | B2 | 0.814
3 | B3 | 0.909
4 | B4 | 0.344
5 | B5 | 0.361
6 | B6 | 0.295
7 | B7 | 0.477
8 | B8 | 2.63
9 | B9 | 7.01
10 | B10 | 3.52
11 | B11 | 0.985
12 | B12 | 1.07
13 | B13 | 0.605
14 | B14 | 0.459
15 | B15 | 2.92
16 | B16 | 0.606
17 | B17 | 0.377
18 | B18 | 3.22
19 | B19 | 0.438
20 | B20 | 1.23
21 | B21 | 0.264
22 | B22 | 0.303
